Reference: PubChem BioAssay AID485297 (National Center for Advancing Translational Sciences (NCATS), 2010)
The campaign covered roughly 320,000 compounds. About 9,100 (2.8%) were called active. Calls come from the whole dose curve; as a rule, active = well fitted activation curve with a large enough effect; inconclusive = small, poorly fitted or top-dose-only effect; inactive = no such curve, though single readings can be large or run the other way. The inconclusive results got no clear call from the source. Potencies of inconclusive entries are left out as doubtful fits.

test: qHTS Assay for Rab9 Promoter Activators; conditions: Huh7 Rab9 promoter-luciferase reporter, luminescence, 24 h; series mostly up to 9.22 µM; note: nearly all actives have a fitted effect of over 60% in size
Text: NIH Chemical Genomics Center [NCGC] NIH Molecular Libraries Probe Production centers Network [MLPCN] MLPCN Grant: MH089537-01 Assay Submitter (PI): Yiannis A. Ioannou NCGC Assay Overview: Niemann Pick Type C (NPC) is a rare neurodegenerative lipidosis that is characterized by lipid storage in the endosomal/lysosomal system. Treatment modalities for this devastating disease are currently non-existent due to the severe obstacles associated with accessing the central nervous system with proteins or genes (Ioannou, 2000). We have developed a new paradigm, termed "Orphan Receptor Bypass Therapy" (ORByT), to address these disorders. This paradigm posits the existence of endogenous "suppressor" proteins whose expression can dramatically improve LSD pathogenesis. The goal is the identification/discovery of small chemical compounds that can modulate the expression of these proteins and provide a new treatment modality for these devastating disorders. One such protein whose overexpression reverses aspects of the NPC phenotype is Rab9. […]
The Rab9 promoter is cloned in front of the luciferase reporter gene, therefore […] promoter activation results in luciferase expression. […] 7.Read using the luminescence protocol on the ViewLux plate reader (Perkin Elmer).
Potency is the fitted concentration of half-maximal effect; tags give direction and shape of the fitted curve.

SMILES | Potency
COc1cc(/C=N/Nc2ccc(Cl)c(C(=O)O)c2)ccc1OC(=O)c1ccc(F)cc1 | inconclusive [activator, partial curve]
COc1ccc(C(=O)Nc2ccc(/C(C)=N/NC(=O)c3ccncc3)cc2)cc1 | inconclusive [activator, partial curve]
